This is one part of the list. At the low end of the ranking the order means little. Measured with an extract: partners may take part in the binding.

This experiment has as its target T1, HNF4alpha2 (COS-7 nuclear extract) (UniProt P41235).
T1 sequence: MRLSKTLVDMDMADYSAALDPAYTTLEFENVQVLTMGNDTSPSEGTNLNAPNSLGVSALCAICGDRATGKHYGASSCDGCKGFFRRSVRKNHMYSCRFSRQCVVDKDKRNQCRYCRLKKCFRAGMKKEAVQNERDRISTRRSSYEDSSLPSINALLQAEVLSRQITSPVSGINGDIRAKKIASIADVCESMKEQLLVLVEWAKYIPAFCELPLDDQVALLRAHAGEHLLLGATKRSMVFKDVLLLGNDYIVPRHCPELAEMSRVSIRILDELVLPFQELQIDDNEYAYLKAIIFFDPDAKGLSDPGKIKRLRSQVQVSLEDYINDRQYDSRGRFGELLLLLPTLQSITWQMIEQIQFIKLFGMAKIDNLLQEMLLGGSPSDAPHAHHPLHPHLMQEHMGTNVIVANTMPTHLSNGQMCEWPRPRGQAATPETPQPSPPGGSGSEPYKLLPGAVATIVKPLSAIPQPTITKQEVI
In words: protein-binding microarray. The note with it: COS-7 nuclear extract on double-stranded Agilent 4x180k PBM; binding buffer, salt, pH and temperature not given; high values mean tight binding; double strand, one strand shown; sequences stand for … in …GCCTAGGGAGATTAGAGTATCGGTCGA
In the case of TGGGACTGATAACTTAGGCCCATATTCCTT, the binding signal (log2 normalized intensity) was -1.04.

CCTCATCTGAAAAAAGCTATCATTTGTCAC: the binding signal (log2 normalized intensity) amounted to 0.778.

As for TATTGTGGGTTCTTGCCCTTTGGTCTGGAA, the binding signal (log2 normalized intensity) came to 4.36.

With CAGCTGACCAACAGAGAAGGCCCTGAACTC, the binding signal (log2 normalized intensity) was -1.07.

As for GGTTCTGGCACCTGAAGCTGCCCTTTGCAC, the binding signal (log2 normalized intensity) is 5.37.

Regarding TGAAGTCCAACCCTCCGTTTCTCTGGGCCT, the binding signal (log2 normalized intensity) was -1.12.

On to AAACTCCAAAGTCCATGCTATTAAGCACTA, for which the binding signal (log2 normalized intensity) worked out at 3.04.

CATAAAGGGTTGAAGAAAGATCACACAAAT: the binding signal (log2 normalized intensity) was -1.04.

Consider CAGAAAGCAAGAGCACAAGAACAAAAACTG, for which the binding signal (log2 normalized intensity) was -1.14.

ATGAGCAAACAGAACTGTTAACTTTGTACT: the binding signal (log2 normalized intensity) turned out to be 1.87.

On to CAGAGGGCTGCTTGCAGGAGGCCGGGCGCG, for which the binding signal (log2 normalized intensity) was -1.18.

Consider ACATGTGCAAGGGCAGCTCCGTTTACCTAG, for which the binding signal (log2 normalized intensity) is -1.11.

As for CATTTATAGATAAGCACACTAAGGCTAAAG, the binding signal (log2 normalized intensity) was -1.15.

Regarding CCTGAGGTGTGAGAGGGCAAAGGTCACAGC, the binding signal (log2 normalized intensity) is 8.02.

In the case of GAGTTTAGGCATTCTTAGACACAGTCTGAG, the binding signal (log2 normalized intensity) was -0.227.

For GGGCCAGGAGCAGGAGCAGAAGCAGGCCTC, the binding signal (log2 normalized intensity) is -1.03.

Turning to TGGCTCCAAGGCTGAAGGTCTCGAGGCCTC, the binding signal (log2 normalized intensity) is -1.18.

As for GTTCAACCCTGAATGTGTGCTGGCCTGGTT, the binding signal (log2 normalized intensity) was 1.75.

Turning to AGCCTTTTGTCCCAAGGAGAATTTCACAAA, the binding signal (log2 normalized intensity) worked out at 0.557.

For the sequence AGGTGCAGAGAGGGGCAGGGTTCACATAGC, the binding signal (log2 normalized intensity) worked out at 0.765.

With AGAGGTCGCGAGAGAACTGAAAAAGGGGAC, the binding signal (log2 normalized intensity) is -1.15.

In the case of GCCCATAGAATCTTAGGAAAGCACAGCTGA, the binding signal (log2 normalized intensity) was -1.2.

Turning to GCCCCCTCCCCCTGCCGGCGGCGCAGACGG, the binding signal (log2 normalized intensity) is 4.64.

Turning to GTTTTATATGAAAACAAAGGAAACCAAACA, the binding signal (log2 normalized intensity) is -0.611.

With CCAACAGGTCAGGGAGTAGGTTTGATTTGT, the binding signal (log2 normalized intensity) worked out at 0.804.

Regarding GTGGGAAATCATTCCAGCTATTCTGCCTTA, the binding signal (log2 normalized intensity) was -1.1.

Regarding GTGAGTGTGTTGGCAAGAGATCTGCAGGGT, the binding signal (log2 normalized intensity) amounted to 1.22.

Turning to AGTTTGGTGGACTTTGGCCGTGAAGCCGTC, the binding signal (log2 normalized intensity) stood at 6.2.

With AATATTTAGCTTTCAGTGACTGCTCATTCT, the binding signal (log2 normalized intensity) was -1.02.

For the sequence CCAGTTCCCTCATTAGTAACTCCAGAGATA, the binding signal (log2 normalized intensity) is -0.126.

As for AACAAATTGTGTGCAACAGGAGCCCAGAGA, the binding signal (log2 normalized intensity) was -0.938.

For the sequence GGTCCCACACACCTCAAATGCAGGTGAGAG, the binding signal (log2 normalized intensity) is -1.23.

As to TATCTCTCCAAGGTACTGTGAACTCCAGCT, the binding signal (log2 normalized intensity) was -0.392.

Take CCCCAAAGGCAGGCAGCATGGAATGACTTT: the binding signal (log2 normalized intensity) was -0.848.

On to GTAGGTAAACAGTGACTCATGCAAGCCTGA, for which the binding signal (log2 normalized intensity) is -1.12.

For TACTCTCTTTGGAGTGCTCCCGCCTGACCT, the binding signal (log2 normalized intensity) is 2.62.

In the case of TAGTGTAGTTCCGCTGCTGTCTCGGGGCCA, the binding signal (log2 normalized intensity) was -1.08.

As for TCAGTTAAGGCTTTGAAGTAGGGGCTGCTG, the binding signal (log2 normalized intensity) was -1.19.

As to GCGGTTACTTCGAGTACATTGTAACCACCT, the binding signal (log2 normalized intensity) was -0.503.

Take CTAATGCCACCATTGATCTAACAGGAGGTG: the binding signal (log2 normalized intensity) was 0.0793.

In the case of ACCTTTGCCCTTCTTGTTAACCTCCTATGA, the binding signal (log2 normalized intensity) was 2.69.

For CCACCTGGTGGCAATGTGTCAGAGAAGGAG, the binding signal (log2 normalized intensity) was -0.945.

As for GGGTATTTCCTAAACCAACTATAGAAAGCC, the binding signal (log2 normalized intensity) was -0.85.

For ACTGTGTTGCAAATTATTACTCCCACCGTG, the binding signal (log2 normalized intensity) is 0.753.

Regarding CCAGCTGTCACCCAGCCAGAATTCTCCCTG, the binding signal (log2 normalized intensity) is -1.09.

For the sequence GTCCGAACTCACTACAAACGCCTCTAAGCT, the binding signal (log2 normalized intensity) is -1.12.

For ATCTTGGACTTGGGACTCTGCAGACTGGTG, the binding signal (log2 normalized intensity) is 3.4.

Turning to CCCCCACCTGTGAAGATAAGCTGTCAATTT, the binding signal (log2 normalized intensity) turned out to be 1.74.

Turning to CCTTTGTCCCGTTATGGCACCAAGAAACCT, the binding signal (log2 normalized intensity) is 0.163.

In the case of GGCAAGATTTTGTCCTGAGTTATTGGAAGA, the binding signal (log2 normalized intensity) came to 0.951.

As to CAACGTCCAGAGATTTGCTCGCATTCTTCC, the binding signal (log2 normalized intensity) is -1.05.

In the case of TGTGGGTTCAAATCCATTCAGCAGCGTGTA, the binding signal (log2 normalized intensity) was 0.683.

Turning to CTTAGACAGTAACCCTTGAGCTCTGCACAG, the binding signal (log2 normalized intensity) worked out at 0.901.

With TGAGGCTTTTGAGTCAATAATGGACAAGTT, the binding signal (log2 normalized intensity) worked out at 1.37.

For the sequence GGTACCCTGGCTTGTAATTCAAGACTATAG, the binding signal (log2 normalized intensity) was -1.17.

Regarding ATCTCTAAGCAAACATTCCTCCCTCCCTCT, the binding signal (log2 normalized intensity) was 2.82.

Regarding TCCCGGAACCGTCTGCCCAGAGCGGCAGCG, the binding signal (log2 normalized intensity) was -1.14.

In the case of TCTCTGTAGGTAAACAGTGACTCATGCAAG, the binding signal (log2 normalized intensity) was 1.42.

On to TAATCCCTTATGACGGACAAAGGGCTCTCT, for which the binding signal (log2 normalized intensity) was -1.17.

With AACAGGCATCAACTCTATCATACTCAGCTA, the binding signal (log2 normalized intensity) was -1.07.

For TCCTGACCAGGGGCCAGCAAGAGGTGACCC, the binding signal (log2 normalized intensity) is 3.4.

With TTATTGTGAACTGGAGCAAAGGTCACTCTT, the binding signal (log2 normalized intensity) came out at 5.15.

Turning to TTTCTCCCCTGACTACCAGCCAGTAGGAGT, the binding signal (log2 normalized intensity) came to 1.69.

Consider AATTTAGATACTCACCAGTGGGCCCAGAGC, for which the binding signal (log2 normalized intensity) is -1.21.

Regarding CCGAGAATGCAGCCTTATCTTCCAGCCCTG, the binding signal (log2 normalized intensity) was -1.16.

As for TTGAGAACTTTGACACCGAGGCATATTTAA, the binding signal (log2 normalized intensity) turned out to be 1.12.

As to TCAAGCTCAATGCAACCAGTTGGTGGGTCA, the binding signal (log2 normalized intensity) was found to be 1.17.

Turning to CACTCTCTGGGTTAAACGTGCAGCAATAGG, the binding signal (log2 normalized intensity) was determined as 1.43.

In the case of CATGACCCTTTGCAGGTGGGAGAGGGGGAC, the binding signal (log2 normalized intensity) was -0.835.

As for AAAGCCCAAGGGATGTCCATGAGGAGTTAA, the binding signal (log2 normalized intensity) is -1.02.

Take GGCGTGCTGTGTACTTTGAACTGAAGGATA: the binding signal (log2 normalized intensity) worked out at 4.66.

As to TAAGGACAACCGGTAGCACAACATACTTGG, the binding signal (log2 normalized intensity) was -1.1.

In the case of AGGGGCACTCTCTGTTATCAGACACAAGAA, the binding signal (log2 normalized intensity) was -1.02.

For the origin of these results see PMC10726135.
